Assay results as given in US6906072B1 (Eisai Co., Ltd., priority 2000, dated 2005).

test system: potential dependent calcium channel; assay: Measurement of potential dependent calcium channel activity using fluorescent dye (fura2) in cerebral cortex synaptosome stimulated with KCl; type: cell-based; details: rat cerebral cortex synaptosome, KCl stimulation, fura2, intracellular calcium ion concentration

SMILES	IC50 [µM]
CC(=O)c1cccc(OCCN2CCN(CCCC(C#N)(c3ccccc3)C(C)C)CC2)c1 (centres unmarked) [Example 1]	8.4
CC(C)C(C#N)(CCCN1CCN(Cc2cc3ccccc3o2)CC1)c1ccccc1 (centres unmarked) [Example 3]	5.4
CC(C)C(C#N)(CCCN1CCN(Cc2c[nH]c3ccccc23)CC1)c1ccccc1 (centres unmarked) [Example 5, 1-[(4-cyano-5-methyl-4-phenyl)hexyl]-4-[(3-indolyl)methyl]piperazine]	7.6
CC(C)C(C#N)(CCCN1CCN(Cc2ccc3ccccc3n2)CC1)c1ccccc1 (centres unmarked) [Example 6]	9
CC(C)C(C#N)(CCCN1CCN(Cc2cnccc2-c2ccccc2)CC1)c1ccccc1 (centres unmarked) [Example 7, 1-[(4-cyano-5-methyl-4-phenyl)hexyl]-4-[(4-phenyl-3-pyridyl) Methyl]piperazine]	5.8
CC(C)C(C#N)(CCCN1CCN(C(=O)C2CCc3ccccc3C2)CC1)c1ccccc1 (centres unmarked) [Example 8, 1-[(4-cyano-5-methyl-4-phenyl)hexyl]-4-(1.2.3.4-tetrahydro-2-naphthoyl)piperazine]	6.8
CC(C)C(C#N)(CCCN1CCN(CC2CCc3ccccc3C2)CC1)c1ccccc1 (centres unmarked) [Example 9, 1-[(4-cyano-5-methyl-4-phenyl)hexyl]-4-[(1.2.3.4-tetrahydro-2-naphthyl)methyl]piperazine]	4.5
CC(C)C(C#N)(CCCN1CCN(CC2COc3ccccc3O2)CC1)c1ccccc1 (centres unmarked) [Example 11, 1-[(4-cyano-5-methyl-4-phenyl)hexyl]-4-[2-(1,4-benzodioxanyl) Methyl]piperazine]	5.1
CC(C)C(C#N)(CCCN1CCN(C(=O)c2cc3ccccc3n2C)CC1)c1ccccc1 (centres unmarked) [Example 12, 1-[(4-cyano-5-methyl-4-phenyl)hexyl]-4-(1-methyl-2-indoloyl)piperazine]	8.2
CC(C)C(C#N)(CCCN1CCN(Cc2cc3ccccc3n2C)CC1)c1ccccc1 (centres unmarked) [Example 13, 1-[(4-cyano-5-methyl-4-phenyl)hexyl]-4-[(1-methyl-2-indolyl)methyl]piperazine]	6.6
CC(C)C(C#N)(CCCN1CC2CC1CN2CCOc1ccc(F)cc1)c1ccccc1 (centres unmarked) [Example 14, 2-[(4-cyano-5-methyl-4-phenyl)hexyl]-5-[2-(4-fluorophenoxy)ethyl]-2.5-diazabicycl[2,2,1]heptane]	6.5
CC(C)C(C#N)(CCCN1CCC(Nc2nc3ccccc3o2)CC1)c1ccccc1 (centres unmarked) [Example 17]	8
CC(C)C(C#N)(CCCN1CCC(Nc2nc3ccccc3s2)CC1)c1ccccc1 (centres unmarked) [Example 18]	5.6
CC(C)n1c(NC2CCN(CCCC(C#N)(c3ccccc3)C(C)C)CC2)nc2ccccc21 (centres unmarked) [Example 22]	8.7
CC(C)C(C#N)(CCCN1CCC(N(CCC#N)CCOc2ccc(F)cc2)CC1)c1ccccc1 (centres unmarked) [Example 24, 1-[(4-cyano-5-methyl-4-phenyl)hexyl]-4-[2-(4-fluorophenoxy)ethyl](2-cyanoethyl)aminopiperidine]	3
CC(C)C(C#N)(CCCN1CCN(CCOc2ccc(F)cc2)CC1)c1ccc2ccccc2c1 (centres unmarked) [Example 25, 1-[4-cyano-5-methyl-4-(2-naphthyl)hexyl]-4-[2-(4-fluorophenoxy)ethyl]piperazine]	4.9
CC(C)C(C#N)(CCCN1CCN(CCOc2ccc(F)cc2)CC1)c1cccc2ccccc12 (centres unmarked) [Example 26, 1-[4-cyano-5-methyl-4-(1-naphthyl)hexyl]-4-[2-(4-fluorophenoxy)ethyl]piperazine]	5.2
CC(C)C(C#N)(CCCN1CCN(CCc2ccccc2)CC1)c1ccccc1 (centres unmarked) [Example 30, 1-[(4-cyano-5-methyl-4-phenyl)hexyl]-4-(2-phenylethyl)piperazine]	7.7

SMILES	IC50 [µM]
CC(C)C(C#N)(CCCN1CCN(CCCc2ccccc2)CC1)c1ccccc1 (centres unmarked) [Example 31]	4.5
CC(C)C(C#N)(CCCN1CCC(N(CCC#N)CCOc2cccc(F)c2)C1)c1ccccc1 (centres unmarked) [Example 32, 1-[(4-cyano-5-methyl-4-phenyl)hexyl]-3-[N-(2-cyanoethyl)-N-[2-(3-fluorophenoxy)ethyl]Amino]pyrrolidine]	5.1
CC(C)C(C#N)(CCCN1CCC(N(CCC#N)CCOc2cccc(C#N)c2)C1)c1ccccc1 (centres unmarked) [Example 33, 1-[(4-cyano-5-methyl-4-phenyl)hexyl]-3-[N-(2-cyanoethyl)-N-(2-(3-cyanothenoxy)ethyl]Amino]pyrrolidine]	2.6
CC(C)C(C#N)(CCCN1CCC(N(CCC#N)CCOc2ccccc2C#N)C1)c1ccccc1 (centres unmarked) [Example 34, 1-[(4-cyano-5-methyl-4-phenyl)hexyl]-3-[N-(2-cyanoethyl)-N-[2-(2-cyanophenoxy)ethyl]Amino]pyrrolidine]	4.4
CC(C)C(C#N)(CCCN1CCC(N(CCC#N)CCOc2cccc(C#N)c2)C1)c1cccs1 (centres unmarked) [Example 37, 1-[(4-cyano-5-methyl-4-(2-thienyl))hexyl]-3-[N-(2-cyanoethyl)-N-{2-(3-cyanophenoxy)ethyl}amino]pyrrolidine]	8.3
CC(C)C(C#N)(CCCN1CCN(Cc2ccc(-c3ccccc3)nc2)CC1)c1ccccc1 (centres unmarked) [Example 38, 1-[(4-cyano-5-methyl-4-phenyl)hexyl]-4-[(6-phenylpyridine-3-yl)methyl]piperazine]	5.8
CC(C)C(C#N)(CCCN1CCN(Cc2cc(-c3ccccc3)on2)CC1)c1ccccc1 (centres unmarked) [Example 39, 1-[(4-cyano-5-methyl-4-phenyl)hexyl]-4-[(5-phenylisoxazo-3-yl)methyl]piperazine]	6.2
CC(C)C(C#N)(CCCN1CCN(Cc2csc(-c3ccccc3)n2)CC1)c1ccccc1 (centres unmarked) [Example 40, 1-[(4-cyano-5-methyl-4-phenyl)hexyl]-4-[(2-phenylthiazo-4-yl)methyl]piperazine]	3.5
CC(C)C(C#N)(CCCN1CCN(Cc2noc(-c3cccc(F)c3)n2)CC1)c1ccccc1 (centres unmarked) [Example 45]	7.4
CC(C)C(C#N)(CCCN1CCC(CCOc2ccc(F)cc2)CC1)c1ccccc1 (centres unmarked) [Example 46]	4.9
CC(C)C(C#N)(CCCC1CCN(CCOc2ccc(F)cc2)CC1)c1ccccc1 (centres unmarked) [Example 48]	3.5
CC(C)C(C#N)(CCCN1CCN(CCCC(C#N)c2ccc(F)cc2)CC1)c1ccccc1 (centres unmarked) [Example 50]	4.8
CC(C)C(C#N)(CCCN1CCN(CCC/C(=N\O)c2ccc(F)cc2)CC1)c1ccccc1 (centres unmarked) [Example 51, 1-[(4-Cyano-5-methyl-4-phenyl)hexyl]-4-[4-hydroxime-4-(4′-fluorophenyl)butyl]piperazine]	5.2
CC(C)C(CCN1CCN(CCCC(C#N)(c2ccccc2)C(C)C)CC1)c1ccccc1 (centres unmarked) [Example 52, 1-[(4-Cyano-5-methyl-4-phenyl)hexyl]-4-(4-methyl-3-phenylpentane)piperazine]	5.1
CC(C)C(CCCN1CCN(CCCC(C#N)(c2ccccc2)C(C)C)CC1)c1ccccc1 (centres unmarked) [Example 53, 1-[(4-Cyano-5-methyl-4-phenyl)hexyl]-4-(4-methyl-3-phenyl-hexane)piperazine]	2.8
C=CCOCC(CN1CCN(CCCC(C#N)(c2ccccc2)C(C)C)CC1)Oc1ccc(F)cc1 (centres unmarked) [Example 55, 1-[(4-Cyano-5-methyl-4-phenyl)hexyl]-4-[3-allyloxy-2-(4-fluorophenoxy)propyl]piperazine]	3.5
CCCOCC(CN1CCN(CCCC(C#N)(c2ccccc2)C(C)C)CC1)Oc1ccc(F)cc1 (centres unmarked) [Example 56, 1-[(4-Cyano-5-methyl-4-phenyl)hexyl]-4-[3-(n-propanoxy)-2-(4-fluorophenoxy)propyl]piperazine]	3.7
